# Several values for one entry are separate records, joined by “and”; a condition that tells them apart may be missing. Identical values can stand only once. Inconclusive results, whose numbers are uncertain, are shown with a selection of clear calls. For some assays here: Potencies beside an inconclusive call are fits to weak or partial responses and may not hold up. Some compounds were tested as several samples or in several runs, with calls that do not always agree. Activity calls are given as the source filed them. Unless noted, calls follow the shape of the dose curve; as a rule, active = well fitted curve in the direction sought with a large enough effect; inconclusive = small, poorly fitted or top-dose-only effect, or another doubt; inactive = no such curve, though single readings can be large; an effect the other way counts as inactive or inconclusive.
# Legend:
# [1] = NFAT Signaling Pathway (AID 444; active = well fitted curve in either direction with a large enough effect, not every such curve was filed as active; inconclusive = small, poorly fitted or top-dose-only effect, or another doubt;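 also: carbachol stimulus at about its EC50 of 1 µM final; % is scaled to controls: 0 for no effect and ±100 for the full control effect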); conditions: Jurkat NFAT-bla M1, carbachol, beta-lactamase ratio, 5 h; at 7.69 µM (top of the series) unless noted
# Method in brief: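 Jurkat cells with NFAT-driven β-lactamase reporter and co-expressed M1 receptor, stimulated with carbachol (final 1 uM, ~EC50), compound titration, 5 h at 37 °C. CCF4 loaded 1 h at RT; 460/530 nm ratio gave %activity and AC50.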
# [2] = biological target: Cytochrome P450 2D6 (Homo sapiens) (UniProt P10635); assay: qHTS Assay for Inhibitors and Substrates of Cytochrome P450 2D6 (AID 891);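 also: luciferin methyl ether substrate demethylated by CYP2D6 with NADPH regeneration; potency is read from the fitted curve at half-maximal effect; nearly all actives have a fitted effect of over 60% in size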
# Method in brief: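 Luminescent read-out of luciferin formed by 5 nM human CYP2D6 demethylating 30 uM Luciferin-ME EGE (Km level) over 60 min at room temperature after NADPH regeneration addition. Data normalized to full inhibition by 1.43 uM quinidine.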
# [3] = qHTS Assay for Identification of Small Molecule Agonists for Hypoxia Response Element Signaling Pathway (AID 914; active = well fitted activation curve with a large enough effect in the signal ratio, with a control signal flat, not every such curve was filed as active; inconclusive = small, poorly fitted or top-dose-only effect, or effect the other way, or a change in a side signal; the % refers to the signal ratio; also: potency is read from the fitted curve at half-maximal effect; as to activation: top concentration of the series differs between compounds; % of control where 0% means no effect); conditions: ME-180 HRE-bla reporter, beta-lactamase ratio, CoCl2, 17 h; activation: hits give high values
# Method in brief: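 Compounds in a titration series were added to ME-180 reporter cells alongside an EC50 level of CoCl2. After 17 hours, beta-lactamase activity was read as the 460nm/530nm emission ratio of CCF4, giving AC50 values.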
# [4] = qHTS Assay for Identification of Small Molecule Antagonists for NFkB Signaling Pathway (AID 895; active = well fitted inhibition curve with a large enough effect in the signal ratio, with a control signal flat, not every such curve was filed as active; inconclusive = small, poorly fitted or top-dose-only effect, or effect the other way, or a change in a side signal; the % refers to the signal ratio; also: potency is read from the fitted curve at half-maximal effect; as to activity change, negative = inhibition: % is scaled to controls: 0 for no effect and ±100 for the full control effect); conditions: NFkB beta-lactamase reporter cells, FRET ratio 460/530; activity change, negative = inhibition: at 38.3 µM (top of the series) unless noted
# Method in brief: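 ME-180 NFkB-bla cells (beta-lactamase under NFkB response element), plated overnight, treated with compound then 10 pM TNF alpha (about EC50) for 5 hrs at 37 C. LiveBLAzer FRET read at 460/530 nm emission, 405 nm excitation.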
# [5] = qHTS Assay for Identification of Small Molecule Antagonists for Thrombopoietin (TPO) Signaling Pathway (AID 918); conditions: TPO-dependent cell signaling reporter, antagonist mode; activity change, negative = inhibition: at 38.5 µM (top of the series); also: nearly all actives have a fitted effect of over 60% in size
# Method in brief: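 Inhibitors of TPO signaling are sought by stimulating IL-3-starved murine Ba/F3 cells (human TPO receptor, Glycoprotein IIb-driven luciferase) with TPO at its EC50 of 26 pM alongside compound. After 24 hrs at 37 C, reporter luminescence is measured.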
# [6] = biological target: Muscarinic acetylcholine receptor M1 (Rattus norvegicus) (UniProt P08482); assay: qHTS Assay for Antagonists of Acetylcholine Muscarinic M1 Receptor: Kinetic Measurement of Intracellular Calcium Response (AID 943); also: nearly all actives have a fitted effect of over 75% in size; also: potency is read from the fitted curve at half-maximal effect;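 as to activity change, negative = inhibition: Fluo-4 calcium signal as peak divided by basal fluorescence over 4 min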
# Method in brief: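 Antagonism is measured as inhibition of the carbachol-evoked calcium rise in CHO cells transfected with rat M1. Cells are dye-loaded, exposed to compound for 10 min, then stimulated with 100 nM carbachol (EC80).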
# [7] = Stat Signaling Pathway (AID 446; active = well fitted curve in either direction with a large enough effect, not every such curve was filed as active; inconclusive = small, poorly fitted or top-dose-only effect, or another doubt;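 also: ME-180 cervical cancer cells given 40 pM IL-6 alongside compound; SIE-controlled beta-lactamase reporter measured as 460/530 nm FRET emission ratio; top concentration of the series differs between compounds; % is scaled to controls: 0 for no effect and ±100 for the full control effect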); conditions: ME-180 (cervical carcinoma) SIE beta-lactamase reporter, IL-6 stimulated, 5 h; at 38 µM (top of the series) unless noted
# Method in brief: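 Compound effects on IL-6-induced STAT reporter activity were measured in ME-180 cells. After overnight culture, cells were co-treated with 40 pM IL-6 for 5 hrs before beta-lactamase substrate loading at room temperature.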
# [8] = biological target: Muscarinic acetylcholine receptor M1 (Rattus norvegicus) (UniProt P08482); assay: qHTS Assay for Antagonists of Acetylcholine Muscarinic M1 Receptor: Measurement of IP-One Response (AID 944); also: nearly all actives have a fitted effect of over 75% in size; also: potency is read from the fitted curve at half-maximal effect
# [9] = biological target: Cytochrome P450 3A4 (Homo sapiens) (UniProt P08684); assay: qHTS Assay for Inhibitors and Substrates of Cytochrome P450 3A4 (AID 884); also: potency is read from the fitted curve at half-maximal effect; nearly all actives have a fitted effect of over 50% in size
# Method in brief: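 Luminescent readout of luciferin produced by CYP3A4 (20 nM) dealkylation of Luciferin-PPXE, 25 uM (its KM). NADPH-driven reaction ran 60 min at RT after 10 min compound preincubation; data scaled to 57 uM ketoconazole as 100% inhibition.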
# [10] = biological target: Cytochrome P450 2C19 (Homo sapiens) (UniProt P33261); assay: qHTS Assay for Inhibitors and Substrates of Cytochrome P450 2C19 (AID 899); also: potency is read from the fitted curve at half-maximal effect; nearly all actives have a fitted effect of over 60% in size
# Method in brief: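 Signal comes from luciferase acting on luciferin released by CYP2C19-mediated hydroxylation of Luciferin-H EGE, 10uM (KM). Assay mix: 5nM enzyme, 50mM KPO4; 60 min at 37C with NADPH regeneration. Data normalized against 57uM ketoconazole.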
# [11] = biological target: Mitogen-activated protein kinase 10 (Mus musculus) (UniProt Q61831); assay: JNK3 AlphaScreen Assay (AID 530; active = well fitted curve in either direction with a large enough effect, not every such curve was filed as active; inconclusive = small, poorly fitted or top-dose-only effect, or another doubt;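 also: kinase came from lysate of stimulated human HepG2 cells; signal reports phosphorylation of biotinylated GST-cJun 1-79 at Ser73 with 10 µM ATP; potency is read from the fitted curve at half-maximal effect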); conditions: JNK3 lysate, c-Jun phosphorylation; activity change, negative = inhibition: at 57.1 µM (top of the series)
# Method in brief: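 Activity was read by AlphaScreen after JNK3-containing HepG2 lysate (cytokine pre-activated) phosphorylated biotinylated GST-cJun with 10 uM ATP at room temperature. Phospho-Ser73 cJun antibody with Protein-A acceptor beads provided detection.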
# [12] = biological target: Glucocorticoid receptor (Homo sapiens) (UniProt P04150); assay: GR-GFP Redistribution (AID 450;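 active = compounds whose dose series gives a full or clear partial fitted curve of increased nuclear translocation; inconclusive = weak partial curve or effect only at the top dose; inactive = no dose-dependent translocation response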; also: potency is read from the fitted curve at half-maximal effect); conditions: U2OS GR-GFP nuclear translocation, laser cytometry, 2 h
# [13] = biological target: 3',5'-cyclic-AMP phosphodiesterase 4B (Homo sapiens) (UniProt Q07343); assay: qHTS Assay for Inhibitors of PDE-IV (AID 607; active = well fitted activation curve with a large enough effect in the main read-out, with a control signal flat, not every such curve was filed as active; inconclusive = small, poorly fitted or top-dose-only effect, or effect the other way, or a change in a side signal; also: potency is read from the fitted curve at half-maximal effect); conditions: HEK293 ACTOne CNG channel cells, membrane potential fluorescence; activation (PDE inhibition): at 22.9 µM (top of the series)
# Method in brief: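 ACTOne HEK293 cells carry a modified cAMP-gated CNG channel and express endogenous PDE4; plated 1000 cells/well, compounds up to 22.9 uM final. Membrane-potential dye fluorescence (ex 535/em 590) was read; parental cells received 10 uM forskolin + 100 uM RO 20-1724.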
# [14] = biological target: Glucocorticoid receptor (Homo sapiens) (UniProt P04150); assay: GR-EFC Redistribution (AID 451; calls by dose curve; also: potency is read from the fitted curve at half-maximal effect); conditions: CHO-K1 GR-EFC translocation, beta-gal luminescence, 2 h
# Method in brief: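 CHO-K1 cells expressing nuclear EA and GR-ED fragments of b-gal; compounds titrated up to 46 uM final, 2 h at 37 C. GR nuclear translocation read as complemented b-gal luminescence after 1 h RT detection.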
# [15] = Validation screen for inhibitors of Lassa infection (AID 463096; calls by dose curve; also: potency is read from the fitted curve at half-maximal effect)
# [16] = qHTS Assay for Identification of Small Molecule Agonists for Thrombopoietin (TPO) Signaling Pathway (AID 917); also: % is scaled to controls: 0 for no effect and ±100 for the full control effect
# Method in brief: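 First, Ba/F3 cells with human TPO receptor were held overnight without IL-3. Next, compounds and TPO (26 pM final) were added. After 24 hrs at 37 C, luciferase detection reagent was added and luminescence measured following 10 min at room temperature.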
# Tags tell the direction and shape of the fitted curve or compound fluorescence and quenching.
# Chain of UniProt P04150 (P04150 whole entry, looked up, the tested form may be a part): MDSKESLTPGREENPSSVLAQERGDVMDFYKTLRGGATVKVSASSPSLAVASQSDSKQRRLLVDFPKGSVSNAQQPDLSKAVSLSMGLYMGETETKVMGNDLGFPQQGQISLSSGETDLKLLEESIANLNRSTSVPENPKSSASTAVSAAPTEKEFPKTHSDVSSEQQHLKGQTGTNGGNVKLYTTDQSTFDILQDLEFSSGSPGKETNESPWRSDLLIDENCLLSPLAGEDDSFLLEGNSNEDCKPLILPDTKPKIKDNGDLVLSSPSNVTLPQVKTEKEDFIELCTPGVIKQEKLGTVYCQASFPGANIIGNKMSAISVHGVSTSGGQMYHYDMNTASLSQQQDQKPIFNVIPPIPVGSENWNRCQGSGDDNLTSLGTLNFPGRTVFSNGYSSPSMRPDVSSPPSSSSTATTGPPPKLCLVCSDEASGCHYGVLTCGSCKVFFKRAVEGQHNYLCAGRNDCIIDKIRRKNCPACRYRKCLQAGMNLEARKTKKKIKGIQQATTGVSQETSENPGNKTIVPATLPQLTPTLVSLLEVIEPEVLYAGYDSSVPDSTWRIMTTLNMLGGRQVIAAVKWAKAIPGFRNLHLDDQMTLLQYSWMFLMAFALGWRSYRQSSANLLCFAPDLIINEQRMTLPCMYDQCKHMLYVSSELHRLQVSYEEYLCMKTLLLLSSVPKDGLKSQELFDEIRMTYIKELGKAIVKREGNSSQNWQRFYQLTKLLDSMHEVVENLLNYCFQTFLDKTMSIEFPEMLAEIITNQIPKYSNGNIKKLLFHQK
# Chain of UniProt P08482 (P08482 whole entry, looked up): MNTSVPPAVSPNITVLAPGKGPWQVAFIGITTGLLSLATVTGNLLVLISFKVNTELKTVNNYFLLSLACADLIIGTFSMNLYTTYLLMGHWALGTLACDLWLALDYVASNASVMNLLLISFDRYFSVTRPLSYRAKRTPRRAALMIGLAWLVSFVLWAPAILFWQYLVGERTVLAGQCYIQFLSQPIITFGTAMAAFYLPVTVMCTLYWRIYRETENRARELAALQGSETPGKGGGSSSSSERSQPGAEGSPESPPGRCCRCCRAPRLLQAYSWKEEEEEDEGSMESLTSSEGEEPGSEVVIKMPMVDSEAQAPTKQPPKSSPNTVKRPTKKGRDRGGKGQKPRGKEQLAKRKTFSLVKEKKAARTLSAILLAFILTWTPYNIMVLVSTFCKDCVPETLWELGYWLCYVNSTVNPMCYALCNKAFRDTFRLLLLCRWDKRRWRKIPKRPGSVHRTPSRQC
# Chain of UniProt P10635 (P10635 whole entry, looked up): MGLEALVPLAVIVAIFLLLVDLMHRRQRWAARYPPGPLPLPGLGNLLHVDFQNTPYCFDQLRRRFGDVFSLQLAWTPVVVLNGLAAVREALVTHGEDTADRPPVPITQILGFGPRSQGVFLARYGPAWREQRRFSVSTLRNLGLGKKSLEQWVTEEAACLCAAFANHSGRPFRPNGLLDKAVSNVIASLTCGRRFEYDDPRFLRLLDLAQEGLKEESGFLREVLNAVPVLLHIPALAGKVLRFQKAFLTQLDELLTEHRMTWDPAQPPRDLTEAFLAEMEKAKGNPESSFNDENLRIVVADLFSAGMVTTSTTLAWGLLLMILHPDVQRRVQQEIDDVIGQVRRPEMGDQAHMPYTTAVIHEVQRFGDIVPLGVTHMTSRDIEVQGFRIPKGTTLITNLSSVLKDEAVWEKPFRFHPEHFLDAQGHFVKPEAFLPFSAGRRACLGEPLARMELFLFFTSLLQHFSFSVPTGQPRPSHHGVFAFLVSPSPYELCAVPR
# Chain of UniProt P33261 (P33261 whole entry, looked up): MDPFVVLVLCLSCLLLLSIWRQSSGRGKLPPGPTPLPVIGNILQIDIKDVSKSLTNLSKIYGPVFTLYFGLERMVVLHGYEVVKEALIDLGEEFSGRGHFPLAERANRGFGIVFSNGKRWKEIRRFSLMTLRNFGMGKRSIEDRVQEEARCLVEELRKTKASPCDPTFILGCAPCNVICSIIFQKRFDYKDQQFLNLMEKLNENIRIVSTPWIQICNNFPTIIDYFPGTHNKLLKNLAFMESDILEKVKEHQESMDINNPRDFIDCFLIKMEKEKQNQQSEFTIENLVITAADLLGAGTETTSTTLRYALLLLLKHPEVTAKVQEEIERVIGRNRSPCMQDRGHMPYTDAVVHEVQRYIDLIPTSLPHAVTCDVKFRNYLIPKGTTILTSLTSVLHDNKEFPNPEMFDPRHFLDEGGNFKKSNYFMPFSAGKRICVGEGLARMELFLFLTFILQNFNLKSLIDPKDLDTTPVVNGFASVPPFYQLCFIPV
# Chain of UniProt Q07343 (Q07343 whole entry, looked up): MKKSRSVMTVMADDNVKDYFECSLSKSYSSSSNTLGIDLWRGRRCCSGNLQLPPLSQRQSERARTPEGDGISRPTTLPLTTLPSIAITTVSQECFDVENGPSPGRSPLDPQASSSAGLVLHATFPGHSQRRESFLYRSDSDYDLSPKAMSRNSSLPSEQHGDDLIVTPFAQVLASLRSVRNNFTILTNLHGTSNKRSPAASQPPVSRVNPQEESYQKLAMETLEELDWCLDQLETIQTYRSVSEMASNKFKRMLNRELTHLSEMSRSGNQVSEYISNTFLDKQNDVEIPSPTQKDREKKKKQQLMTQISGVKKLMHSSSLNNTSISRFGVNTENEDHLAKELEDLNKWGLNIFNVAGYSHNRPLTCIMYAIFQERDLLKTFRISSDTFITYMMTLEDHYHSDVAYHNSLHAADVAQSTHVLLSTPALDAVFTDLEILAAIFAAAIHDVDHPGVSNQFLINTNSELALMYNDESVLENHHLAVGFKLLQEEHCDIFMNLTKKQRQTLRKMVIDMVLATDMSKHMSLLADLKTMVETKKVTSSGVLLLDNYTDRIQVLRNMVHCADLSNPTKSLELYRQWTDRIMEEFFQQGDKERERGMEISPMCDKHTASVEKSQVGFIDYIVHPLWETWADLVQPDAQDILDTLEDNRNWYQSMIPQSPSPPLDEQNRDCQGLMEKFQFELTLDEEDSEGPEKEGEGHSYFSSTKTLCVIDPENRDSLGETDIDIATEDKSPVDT
# Chain of UniProt P08684 (P08684 whole entry, looked up): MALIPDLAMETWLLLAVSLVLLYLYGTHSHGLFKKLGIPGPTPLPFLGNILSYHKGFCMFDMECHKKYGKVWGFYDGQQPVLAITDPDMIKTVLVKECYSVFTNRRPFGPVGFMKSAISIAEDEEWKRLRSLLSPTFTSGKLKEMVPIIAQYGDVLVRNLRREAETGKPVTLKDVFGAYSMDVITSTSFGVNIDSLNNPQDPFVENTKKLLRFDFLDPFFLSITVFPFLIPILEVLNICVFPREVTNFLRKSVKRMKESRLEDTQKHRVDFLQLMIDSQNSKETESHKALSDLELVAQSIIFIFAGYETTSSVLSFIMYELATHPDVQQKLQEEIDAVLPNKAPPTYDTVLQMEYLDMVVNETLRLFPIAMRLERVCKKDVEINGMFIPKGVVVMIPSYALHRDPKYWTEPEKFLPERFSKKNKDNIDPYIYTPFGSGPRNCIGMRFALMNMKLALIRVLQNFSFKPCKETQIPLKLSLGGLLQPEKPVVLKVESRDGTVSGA
smiles,measurement,setting,value
c1ccc2c([C@@H]3CCN(CCN4CCOCC4)C3)c[nH]c2c1,"activity change, negative = inhibition",[1],inconclusive: -32.8% [inhibitor]
same,Potency,[2],"inconclusive: 3.98 µM [inhibitor, partial curve]"
CC(=O)O[C@H]1CC[C@H]2[C@@H]3CCC4=C[C@@H](C5SCCS5)[C@H](OC(C)=O)C[C@]4(C)[C@H]3CC[C@@]12C,"activity change, negative = inhibition",[1],inconclusive: 2.65% [activator]
same,activation,[3],inconclusive: 10.9%
C[C@@H]1O[C@H]1P(=O)(O)O,"activity change, negative = inhibition",[1],inactive: 6.57% [at 38 µM]
same,Potency,[4],"inconclusive: 20 µM [inhibitor, single point] [stimulated with 10 pM TNF alpha]"
same,"activity change, negative = inhibition",[5],inconclusive: -18.6% [phenotype inactive]
same,Potency,[6],inactive
c1ccc(N2CC3(CCNCC3)C2)cc1,"activity, negative = inhibition",[7],inactive: 1.24% [at 7.69 µM]
C[C@@H]1[C@@H]2Cc3ccc(O)cc3[C@@]1(C)CCN2CC1CC1,"activity change, negative = inhibition",[1],inconclusive: -39% [inhibitor] [at 38 µM]
same,Potency,[4],inactive
same,"activity change, negative = inhibition",[5],inconclusive: 2.77% [phenotype inactive]
same,Potency,[6],active: 14.1 µM
same,Potency,[8],active: 15.8 µM
C[C@H](CC(C#N)(c1ccccc1)c1ccccc1)N1CCCCC1,"activity change, negative = inhibition",[1],inconclusive: -77.4% [inhibitor]
same,Potency,[9],"inconclusive: 3.98 µM [inhibitor, partial curve]"
same,Potency,[10],"inconclusive: 1.58 µM [inhibitor, partial curve]"
same,activation,[3],inactive: 4.33%
CN1[C@@H](C[C@@H](O)c2ccccc2)CCC[C@@H]1C[C@H](O)c1ccccc1,"activity change, negative = inhibition",[1],inconclusive: -67.7% [inhibitor] [at 17.2 µM]
same,Potency,[2],active: 0.631 µM
CC(C)(C)NC[C@H](O)c1ccccc1Cl,"activity, negative = inhibition",[7],inactive: -5.97%
same,Potency,[11],"inconclusive: 2.51 nM [inhibitor, full curve, poor fit]"
same,Potency,[3],"inconclusive: 0.0032 µM [inhibitor, full curve]"
same,"activity change, negative = inhibition",[5],inconclusive: -14.9% [phenotype inactive]
same,Potency,[6],"inconclusive: 15.8 µM [inhibitor, partial curve, poor fit]"
same,Potency,[8],"inconclusive: 25.1 µM [inhibitor, partial curve, poor fit]"
CN[C@H]1[C@H]2[C@H]3CCN2C[C@@H]1O3,Potency,[12],inconclusive: 55.7 µM [single point]
same,Potency,[13],"inconclusive: 19 µM [inhibitor, single point]"
NC(N)=NCCN=C(N)N,"activity, negative = inhibition",[7],inconclusive: 3.19% [inhibitor] [at 7.69 µM]
same,activation,[3],inconclusive: 6.42%
CCNCCC1(CC)C(=O)NC(=O)NC1=O,Potency,[14],inconclusive: > 9.22 µM [single point]
CCN(CC)CCn1ncc2c(N)ncnc21,Potency,[14],inconclusive: 9.08 µM [single point]
COC(=O)N1CCN(C(=O)Cc2ccc(Cl)c(Cl)c2)[C@H](CN2CCCC2)C1,Potency,[12],active: 1.28 µM
same,Potency,[11],"inconclusive: 12.6 nM [activator, full curve, poor fit] and inconclusive: 10 nM [activator, full curve]"
same,Potency,[4],inactive
same,"activity change, negative = inhibition",[5],inconclusive: 0.909% [phenotype inactive]
same,Potency,[6],"inconclusive: 17.8 µM [inhibitor, partial curve, poor fit]"
C=C(C)[C@@H]1CN[C@H](C(=O)O)[C@H]1CC(=O)O,"activity, negative = inhibition",[7],inconclusive: 11% [activator]
same,Potency,[11],"inconclusive: 31600 nM [activator, partial curve, poor fit]"
O=C(Nc1ccc([As](=O)(O)O)cc1)Nc1cccc(Cl)c1Cl,"activity, negative = inhibition",[7],inconclusive: 7.1% [activator] [at 7.69 µM]
same,activation,[3],inconclusive: -2.19%
N#Cc1c(-c2ccccc2)no[n+]1[O-],Potency,[15],active: 10 µM
C[N+]1=Cc2cc3c(cc2CC1)OCO3,Potency,[12],inactive: > 46 µM
C#C[C@@]1(O)CC[C@@H]2[C@@H]3CCC4=CC(=O)CC[C@@]4(C)[C@H]3CC[C@]21C,Potency,[12],active: 0.155 µM
same,Potency,[10],"inconclusive: 0.501 µM [inhibitor, full curve, poor fit]"
CC(=O)OCC1=C(C(=O)[O-])N2C(=O)[C@@H](NC(=O)CCC[C@@H](N)C(=O)[O-])[C@@H]2SC1.[Zn+2],"activity, negative = inhibition",[7],inactive: -13.9%
same,Potency,[16],inactive
same,"activity change, negative = inhibition",[5],inconclusive: 21% [phenotype inactive]
same,Potency,[6],inactive
same,Potency,[8],inactive

# Source: PubChem BioAssay (NCATS)
